PubChem BioAssay AID1671194 (National Center for Advancing Translational Sciences (NCATS), 2021)
The whole screen tested about 140,000 compounds, of which about 240 (0.17%) were called active. Inconclusive means that the source gave no clear call. Such entries were picked first, then a sample of the others. The call rests on the fitted dose curve; in most records, active means well fitted inhibition curve with a large enough effect; inconclusive means small, poorly fitted or top-dose-only effect; inactive means no such curve, though single readings can be large or run the other way. A potency beside an inconclusive call is a rough fit, not a confirmed value.

experiment: Primary qHTS assay for inhibitors of alpha-synuclein gene (SNCA) expression; settings: HEK-293 SNCA-luciferase knock-in, luminescence, 24 h; series mostly up to 57.2 µM; further: nearly all actives have a fitted effect of over 45% in size
Potency means the concentration at half of the fitted maximal effect; tags describe the fitted curve by direction and shape.

SMILES	Potency
COc1ccc(CCNc2ncnc3c2CN(c2ccc(Cl)cc2)C(=O)N(C)C3)cc1	inconclusive: 39.8 µM [inhibitor, single point]
O=C(NCCS(=O)(=O)N1CCN(c2ccccc2F)CC1)c1ccccc1C(F)(F)F	inconclusive: 3.16 µM [inhibitor, partial curve, poor fit]
COc1ccccc1-c1nc(C2CC(=O)N(c3ccc(F)c(Cl)c3)C2)no1 (stereo not drawn)	inconclusive: 39.8 µM [inhibitor, single point]
CC(C)NC(=O)c1ccc2nccn2c1	inactive
COc1ccc(C2c3c(-c4ccccc4O)n[nH]c3C(=O)N2CCc2ccccc2)cc1 (stereo not drawn)	inconclusive: 28.2 µM [inhibitor, single point]
O=C(C1CCCC1)N1CCc2nc(-c3ccccc3)nc(-c3ccc(Cl)cc3)c2C1	inactive
O=c1[nH]c(C2CCCN(Cc3ccccn3)C2)nn1-c1ccc(Cl)cc1 (stereo not drawn)	inconclusive: 10 µM [inhibitor, partial curve, poor fit]
O=C(Nc1ccc(Oc2ccccc2)cc1)N[C@H]1CO[C@H]2[C@@H]1OC[C@@H]2n1nnnc1Oc1ccc(-n2cncn2)cc1	inconclusive: 10 µM [inhibitor, partial curve, poor fit]
COc1ccc2c(c1)c(=O)c(C(=O)c1ccc(C)cc1)cn2Cc1ccccc1F	inconclusive: 11.2 µM [inhibitor, partial curve, poor fit]
COc1cccc(CC(=O)NCc2nnc3cc(-c4nc(C5CC5)no4)ccn23)c1	inactive
Cc1cc(C)cc(NC(=O)C(=O)NCC(c2cccnc2)N2CCc3ccccc32)c1 (stereo not drawn)	inconclusive: 39.8 µM [inhibitor, single point]
CCC1CCCCN1CCCNC(=O)c1ccc2c(c1)sc1nc(-c3ccc(F)cc3)cn12 (stereo not drawn)	inconclusive: 39.8 µM [inhibitor, single point]
CC(C)COc1ccc(Nc2ncnc3ccc(Br)cc23)cc1	inconclusive: 2.24 µM [inhibitor, single point]
CC(=O)N1CC2(CCN(c3nc(C)cc(C(=O)O)n3)CC2)CC1C(=O)O (stereo not drawn)	inconclusive: 39.8 µM [inhibitor, partial curve, poor fit]
COc1cc(-c2ccnc3nc(CCc4ccccc4)nn23)cc(OC)c1OC	inactive
CCOc1ccc(C(=O)NC2CCN(c3cc(-c4ccc(F)cc4)[nH]n3)CC2)cc1OCC	inactive
CN(c1ccccc1)C(CNS(=O)(=O)c1ccccc1)c1ccccc1 (stereo not drawn)	inconclusive: 39.8 µM [inhibitor, single point]
CC(C)C(=O)N1CCC2(CC1)OC(=O)N(Cc1ccccc1C#N)C2(C)c1ccccc1 (stereo not drawn)	inactive
Cc1nnsc1C(=O)N[C@H]1CCN(C(=O)COCC(=O)O)[C@H](C(=O)N[C@H](CC(C)C)C(N)=O)C1	inactive
COc1ccc(Cl)cc1-c1ccc2c(c1)C(=O)N1CCN(C(=O)c3ccco3)C[C@H]1C(=O)N2	inactive
CCC(C)NC(=O)C1CCN(C(=O)c2ccc(-c3ccccc3OC)cc2)CC1 (stereo not drawn)	inconclusive: 2 µM [inhibitor, full curve, poor fit]
COc1ccc(OCC2(C)COc3ccc(C(=O)NC4CCC(O)CC4)cc3N2)cc1 (stereo not drawn)	inconclusive: 8.91 µM [inhibitor, full curve, poor fit]

SMILES	Potency
O=c1c(CCc2ccccc2)nc2cnc(Oc3ccccc3)nc2n1C1CC1	inconclusive: 2 µM [inhibitor, partial curve, poor fit]
O=C(NC1CCCN(c2cc(-c3ccc(F)cc3)[nH]n2)C1)c1cccc(Br)c1 (stereo not drawn)	inconclusive: 39.8 µM [inhibitor, single point]
O=C(c1ccccc1)N1CCC(n2cc(-c3nc(-c4ccccc4)no3)nn2)C1 (stereo not drawn)	inactive
O=C(c1ccc(-n2cnnn2)cc1O)N1CCCC(CCc2ccc(F)cc2)C1 (stereo not drawn)	inconclusive: 3.98 µM [inhibitor, full curve, poor fit]
Cc1ccc(Cn2cc(C(=O)c3ccc(C)cc3)c(=O)c3ccc(C)nc32)cc1	inconclusive: 3.98 µM [inhibitor, full curve, poor fit]
COc1ccc(-c2cc(N3CCCC(NC(=O)c4cccc(C#N)c4)C3)n[nH]2)cc1 (stereo not drawn)	inconclusive: 3.55 µM [inhibitor, full curve]
CC(=O)Nc1ccc2ncnc(N3CCCC3)c2c1	inactive
N#CC1CCN(C(=O)C2CCCN(c3nc4ncccc4o3)C2)CC1 (stereo not drawn)	inactive
O=C1C2=C(Nc3ccccc3SC2c2ccc(Cl)c(Cl)c2)c2ccccc21 (stereo not drawn)	inconclusive: 39.8 µM [inhibitor, single point]
COc1cccc(N2C(=O)C(CC(=O)Nc3ccc(F)cc3)N(CCC3=CCCCC3)C2=O)c1 (stereo not drawn)	inconclusive: 35.5 µM [inhibitor, single point]
O=C(NCc1ccc(F)cc1)c1ccc2nccn2c1	inactive
O=C(Cc1cccnc1)N1CCc2c(nc3cc(-c4ccccc4)[nH]n3c2=O)C1	inactive
Cc1cc(C)cc(C(=O)NC2CCN(c3cc(-c4cccs4)[nH]n3)C2)c1 (stereo not drawn)	inconclusive: 22.4 µM [inhibitor, single point]
COc1ccc(CNC(=O)c2ccc3c(c2)N(C(=O)c2ccc(F)cc2)CC3)cc1	inconclusive: 10 µM [inhibitor, partial curve, poor fit]
CCOc1cccc(-c2noc(-c3nnn4c3COC(c3cccc(OC)c3)C4)n2)c1 (stereo not drawn)	inactive
COc1ccccc1-c1cc2c(ccn2C)c(C(=O)NCc2cccnc2)n1	inactive
C[S+](=O)([O-])c1cccc(-c2nnc3ccc(C(=O)NCCc4ccc(Cl)cc4)cn23)c1	inactive
Cn1nc(C(=O)N2CCC[C@H](n3c(=O)n(CC4CC4)c4cccnc43)C2)c2ccccc21	inconclusive: 39.8 µM [inhibitor, single point]
CCCS(=O)(=O)NCc1cccnc1Oc1cccc(C(F)(F)F)c1	inactive
O=C(NC1CCCC1)N1CCC(C(=O)N2CCC(c3nc4ncccc4[nH]3)CC2)CC1	inactive
CCOc1ccccc1NC(=O)CN1C(=O)NC(c2ccc(Cl)cc2)C2=C1COC2=O (stereo not drawn)	inconclusive: 5.62 µM [inhibitor, full curve, poor fit]
